Data on 38 compounds can be found in PubChem BioAssay AID1745853 (National Center for Advancing Translational Sciences (NCATS), 2022).

SMILES strings stand for the structures. Several values for one entry are separate records, joined by “and”; a condition that tells them apart may be missing. Equal values may be shown once. The list shows a part of the results. Further columns of the screen follow, without active or inactive calls.

What all share (experiment): Primary Screen for Target Class Profiling of Small Molecule Inhibitors of Methyltransferases
Assay [1] addresses Glycine N-methyltransferase (Homo sapiens) (UniProt Q14749). Conditions: purified enzyme, MTase-Glo SAH luminescence; measured here: GNMT inhibition; at 40 µM; stronger effect = lower value. Summed up:
(§1)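 Each enzyme was reacted with SAM and its substrate, with compounds tested once at 40 uM; SAH formed was read by MTase-Glo luminescence.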

Assay [2] addresses Guanidinoacetate N-methyltransferase (Homo sapiens) (UniProt Q14353). Conditions: purified enzyme, MTase-Glo SAH luminescence; measured here: GAMT inhibition; at 40 µM; stronger effect = lower value. An outline of the steps: as §1
Assay [3] addresses Histamine N-methyltransferase (Homo sapiens) (UniProt P50135). Conditions: purified enzyme, MTase-Glo SAH luminescence; measured here: HNMT inhibition; at 40 µM; stronger effect = lower value. Summed up:
as §1

For assay [4], the target named is Nicotinamide N-methyltransferase (Homo sapiens) (UniProt P40261). Conditions: purified enzyme, MTase-Glo SAH luminescence; measured here: NNMT inhibition; at 40 µM; stronger effect = lower value. An outline of the steps:
as §1

Assay [5] addresses Phenylethanolamine N-methyltransferase (Homo sapiens) (UniProt P11086). Conditions: purified enzyme, MTase-Glo SAH luminescence; measured here: PNMT inhibition; at 40 µM; stronger effect = lower value. Summed up: as §1
% is scaled to controls: 0 for no effect and ±100 for the full control effect.

Turning to `O=C(O)c1cc(-c2c(-c3ccccc3)nn3ccccc23)n[nH]c1=O`, the activity change, negative = inhibition in assay [1] was -7.68%; in assay [2], 3.93%; in assay [3], -4.64%; in assay [4] it was -14.3%; in assay [5] it was -5.68%.

Consider `CN(CCc1cn[nH]c1)C(=O)C1CCN(C(=O)C2CCC2)CC1`, for which the activity change, negative = inhibition in assay [1] was -0.411%; in assay [2], -2.98%; in assay [3] it was -0.335%; in assay [4], 1.95%; in assay [5] it was -0.91%.

For the compound `CC(C)Oc1ccc(C(=O)N2Cc3cnn(Cc4ccc(F)cc4)c3C2)cc1`, the activity change, negative = inhibition in assay [1] was -2.94%; in assay [2], 2.73%; in assay [3], 0.072%; in assay [4] it was -12%; in assay [5], -4.71%.

In the case of `CN(Cc1cn(-c2ccccc2)nn1)Cc1noc2c1CCCC2`, the activity change, negative = inhibition in assay [1] is -5.28%; in assay [2], -7.62%; in assay [3] it was -1.59%; in assay [4] it was -4.88%; in assay [5], -8.79%.

Turning to `CCCn1c(=O)c2ccccc2n2c(=O)n(CC(=O)NCc3ccc(C)cc3)nc12`, the activity change, negative = inhibition in assay [1] was -0.093%; in assay [2], 1.69%; in assay [3] it was 2.76%; in assay [4], 0.049%; in assay [5] it was 4.46%.

Consider `Cn1cccc1CN1C[C@@H](CO)[C@H](c2ccncc2)C1`, for which the activity change, negative = inhibition in assay [1] is -4.72%; in assay [2], -1.68%; in assay [3] it was -11.8%; in assay [4], 0.688%; in assay [5], -1.44%.

Regarding `COc1cc(F)c(F)c(Nc2ccc(I)cc2F)c1NS(=O)(=O)C1(C[C@H](O)CO)CC1`, the activity change, negative = inhibition in assay [1] is -14.3%; in assay [2] it was -4.27% and 14.3%; in assay [3], 10.1%; in assay [4], -17.4% and -6.25%; in assay [5], 1.59% and 9.39%.

As to `CC(C)(C)NCC(O)COc1cccc2c1CCCC2=O` (stereo not given), the results for the activity change, negative = inhibition in assay [1] and in assay [3] were 9.13% and -9.17%, respectively.

For `CCOCCCN1C(=O)c2cc3occc3n2CC1(C)C(=O)NC1CCC(C)CC1` (stereo not given), the activity change, negative = inhibition in assay [1] was -2.24%; in assay [2], 4.2%; in assay [3] it was 3.77%; in assay [4], 3.89%; in assay [5], -2.23%.

Turning to `O=C(NCc1ccccc1)c1ccc(-c2ccc(N3CCSCC3)nc2)cc1`, the activity change, negative = inhibition was -6.07% in assay [1]; -8.58% in assay [2]; -4.75% in assay [3]; -3.7% in assay [4]; -1.54% in assay [5].

Regarding `CCCn1c(=O)c2cc(Cl)ccc2n2c(SCC(=O)NCc3ccccc3Cl)nnc12`, the activity change, negative = inhibition was -3.4% in assay [1]; -11.2% in assay [2]; 1.62% in assay [3]; -8.86% in assay [4]; -4.69% in assay [5].

For `COc1ccc(CN2C(=O)c3cc(-c4ccc(OC)cc4)nn3CC2(C)C(=O)NCc2ccccc2OC)cc1` (stereo not given), the activity change, negative = inhibition in assay [1] is 3.48%; in assay [2], 5.94%; in assay [3] it was 5.68%; in assay [4], -0.59%; in assay [5], -1.15%.

Regarding `CN[C@@H]1[C@@H](O)[C@@H](O[C@@H]2[C@@H](O)[C@H](O[C@H]3O[C@H](CN)[C@@H](O)[C@H](O)[C@H]3O)[C@@H](N)C[C@H]2NC(=O)[C@@H](O)CN)OC[C@]1(C)O`, the activity change, negative = inhibition in assay [1] was 26.8%; in assay [2] it was 2.34%; in assay [3], 2.2%; in assay [4] it was -9.56%; in assay [5], 0.363%.

Regarding `O=C(Cn1ccc2cc(S(=O)(=O)N3CCCCC3)ccc21)N1CCN(c2ccccn2)CC1`, the activity change, negative = inhibition was -0.252% in assay [1]; 0.184% in assay [2]; 4.33% in assay [3]; -2.48% in assay [4]; 2.11% in assay [5].

Regarding `CC1=CC(=O)CC(C)(C)C1CCC(C)O[C@@H]1O[C@H](CO)[C@@H](O)[C@H](O)[C@H]1O` (stereo not given in full), the activity change, negative = inhibition in assay [1] is -5.04%; in assay [2] it was -7.61%; in assay [3], -1.4%; in assay [4] it was -16%; in assay [5], -2.49%.

Turning to `CCCN1C(=O)c2c(C(=O)NCc3ccc(N(C)C)cc3)ncn2CC1(C)C(=O)NCc1ccc(OC)cc1` (stereo not given), the activity change, negative = inhibition in assay [1] is -1.12%; in assay [2] it was 5.21%; in assay [3] it was -1.38%; in assay [4], 3.04%; in assay [5], 1.9%.

On to `CCNC(=O)N1CC[C@H]2CC(=O)N([C@H](C(N)=O)C(C)C)CC[C@H]2C1`, for which the activity change, negative = inhibition in assay [1] was -4.15%; in assay [2] it was -0.044%; in assay [3] it was -0.404%; in assay [4], 0.329%; in assay [5], 2.52%.

`CN1C[C@H](O)C[C@H]1c1nnc2n1CCN(C(=O)Cc1cccc(F)c1)CC2`: the activity change, negative = inhibition in assay [1] was -0.005%; in assay [2], 3.59%; in assay [3] it was 2.18%; in assay [4], -0.133%; in assay [5], -8.8%.

For `Cc1ccc(NS(=O)(=O)c2cc3c(cc2N[C@@H](C)CO)NC(=O)CC3)cc1Cl`, the results for the activity change, negative = inhibition in assay [2], in assay [4] and in assay [5] were -3.46%, -18.9% and -10.4%, respectively.

With `C=CC(C)(CC/C=C(\C)C(=O)OC)OC1OC(COC(=O)CC(C)(O)CC(=O)O)C(O)C(O)C1O` (stereo not given), the activity change, negative = inhibition in assay [1] was -0.401%; in assay [2] it was 1.44%; in assay [3] it was 2.8%; in assay [4], -10.9%; in assay [5] it was 3.73%.

In the case of `COc1ccc(CN2C(=O)c3cc4ccccc4n3CC2(C)C(=O)NCc2ccccc2)c(OC)c1` (stereo not given), the activity change, negative = inhibition in assay [1] was -1.87%; in assay [2] it was -0.345%; in assay [3], 1.88%; in assay [4] it was -7.32%; in assay [5] it was -2.1%.

Take `CCCC1c2ccc(C)n2CCN1C(=O)Nc1ccc(F)c(Cl)c1` (stereo not given): the activity change, negative = inhibition is 3.53% in assay [1]; 0% in assay [2]; -4.03% in assay [3]; 8.21% in assay [4]; -1.06% in assay [5].

On to `Nc1nccn2c(C3CCC(C(=O)O)CC3)nc(-c3cc4cccc(Cl)c4[nH]3)c12` (stereo not given), for which the activity change, negative = inhibition in assay [1] is -48.4%; in assay [2] it was -9.11%; in assay [3], -38.4%; in assay [4], -21.8%; in assay [5], -25%.

As to `Cc1ccccc1N1C(=O)c2cc3occc3n2CC1(C)C(=O)NC1CCCC(C)C1C` (stereo not given), the activity change, negative = inhibition in assay [1] is -5.55%; in assay [2], -6.08%; in assay [3], 5.28%; in assay [4], -8.68%; in assay [5] it was -4.85%.

In the case of `CCCCNC(=O)C(CC)n1ccc2cc(S(=O)(=O)N3CCCCC3)ccc21` (stereo not given), the activity change, negative = inhibition in assay [1] was 4.25%; in assay [2] it was 0.779%; in assay [3], -1.36%; in assay [4], 6.81%; in assay [5], 2.02%.

Turning to `CC1CC(C)CN(S(=O)(=O)c2ccc3c(c2)oc(=O)n3CC(=O)Nc2cccc(F)c2)C1` (stereo not given), the activity change, negative = inhibition in assay [1] was -12.4%; in assay [2], -5.25%; in assay [3] it was 7.18%; in assay [4], -3.61%; in assay [5], -38.5%.

In the case of `COc1ccc(C(=O)N2CC[C@@H](CC(=O)O)[C@@H](CCN3CCC[C@H]3C(N)=O)C2)cc1`, the activity change, negative = inhibition was -1.47% in assay [1]; -0.889% in assay [2]; 1.05% in assay [3]; -2.11% in assay [4]; -3.54% in assay [5].

For `Cc1ccc(C)c(C(=O)Cn2nc3n(CCCOC(C)C)c(=O)c4ccccc4n3c2=O)c1`, the activity change, negative = inhibition in assay [1] is 2.56%; in assay [2], 6.14%; in assay [3], 5.16%; in assay [4] it was -8.01%; in assay [5], 1.26%.

For the compound `Cc1nc(CN2CCN(c3nccc(-c4cccnc4)n3)CC2)cs1`, the activity change, negative = inhibition was -9.09% in assay [1]; -7.57% in assay [2]; -5.41% in assay [3]; -13.5% in assay [4]; -8.23% in assay [5].

For the compound `O=C(NCc1ccc(F)cc1)[C@@H]1C[C@@H](c2cccc(C(F)(F)F)c2)N(CC2CCOCC2)C1`, the activity change, negative = inhibition in assay [1] was 0.079%; in assay [2], 2.18%; in assay [3] it was 3.6%; in assay [4] it was -4.23%; in assay [5], -3.29%.

In the case of `COc1ccc2cc3n(c2c1)CC(C)(C(=O)NC1CCCCC1)N(Cc1ccco1)C3=O` (stereo not given), the activity change, negative = inhibition in assay [1] was -9.02%; in assay [2] it was 4.69%; in assay [3], 1.41%; in assay [4], -5.59%; in assay [5] it was -0.088%.

With `Cc1cc(C)c2nc(-c3ccccn3)cc(C(=O)Nc3ccc(S(=O)(=O)Nc4onc(C)c4C)cc3)c2c1`, the activity change, negative = inhibition in assay [1] was -21.1%; in assay [2], 2.09%; in assay [3], -0.769%; in assay [4], -44.7%; in assay [5], -13.7%.

As for `CCC(c1cccs1)N1C(=O)[C@H]2CN(S(=O)(=O)c3ccccc3F)C[C@H]2C1=O` (stereo not given in full), the activity change, negative = inhibition was -7.82% in assay [1]; -9.33% in assay [2]; -5.23% in assay [3]; -8.76% in assay [4]; -9.49% in assay [5].

In the case of `CC(=O)Nc1c2n(c3ccccc13)CC(C)(C(=O)NC1CCCC1)N(Cc1cccs1)C2=O` (stereo not given), the activity change, negative = inhibition is -11% in assay [1]; 2.11% in assay [2]; -4.67% in assay [3]; -2.87% in assay [4]; 1.65% in assay [5].

For the compound `O=S(=O)(c1ccccc1)c1nnn2c1nc(Nc1cccc(F)c1)c1ccccc12`, the activity change, negative = inhibition in assay [1] is -2.84%; in assay [2] it was 0%; in assay [3] it was 6.71%; in assay [4], -6.56%; in assay [5], -1.8%.

Turning to `O=C1NCCN1C1CCN(Cc2cccnc2)CC1`, the activity change, negative = inhibition in assay [1] was -3.06%; in assay [2] it was -4.41%; in assay [3] it was 2.6%; in assay [4] it was -6.38%; in assay [5] it was 0.842%.

With `O=C(c1ccccn1)N1CCCC2(CNc3ccccc3[S+](=O)([O-])N2)C1` (stereo not given), the activity change, negative = inhibition in assay [1] was -4.79%; in assay [2] it was -7.28%; in assay [3] it was -5.37%; in assay [4], -14.1%; in assay [5], -11.9%.

Regarding `CCOC(=O)c1cc2n(n1)CC(C)(C(=O)NCCC(C)C)N(c1ccccc1OC)C2=O` (stereo not given), the activity change, negative = inhibition in assay [1] is -0.325%; in assay [2], 2.57%; in assay [3], 7%; in assay [4], 4.89%; in assay [5], 0.517%.
